The full ranking holds about 33,000 sequences; the median of “E-score (-0.5 to 0.5)” is about -0.012, and the highest 2% start at about 0.27. Some of the results follow.
The sequences below were run against T1, Vhr1 (UniProt P40522) (assay: PBM E-score (8-mer binding enrichment) (E-score (-0.5 to 0.5)); higher = stronger / more preferred TF binding; most listed sequences are background and not binding sites). Details: protein concentration: 200 nM; construct: GST-full length.
T1 sequence: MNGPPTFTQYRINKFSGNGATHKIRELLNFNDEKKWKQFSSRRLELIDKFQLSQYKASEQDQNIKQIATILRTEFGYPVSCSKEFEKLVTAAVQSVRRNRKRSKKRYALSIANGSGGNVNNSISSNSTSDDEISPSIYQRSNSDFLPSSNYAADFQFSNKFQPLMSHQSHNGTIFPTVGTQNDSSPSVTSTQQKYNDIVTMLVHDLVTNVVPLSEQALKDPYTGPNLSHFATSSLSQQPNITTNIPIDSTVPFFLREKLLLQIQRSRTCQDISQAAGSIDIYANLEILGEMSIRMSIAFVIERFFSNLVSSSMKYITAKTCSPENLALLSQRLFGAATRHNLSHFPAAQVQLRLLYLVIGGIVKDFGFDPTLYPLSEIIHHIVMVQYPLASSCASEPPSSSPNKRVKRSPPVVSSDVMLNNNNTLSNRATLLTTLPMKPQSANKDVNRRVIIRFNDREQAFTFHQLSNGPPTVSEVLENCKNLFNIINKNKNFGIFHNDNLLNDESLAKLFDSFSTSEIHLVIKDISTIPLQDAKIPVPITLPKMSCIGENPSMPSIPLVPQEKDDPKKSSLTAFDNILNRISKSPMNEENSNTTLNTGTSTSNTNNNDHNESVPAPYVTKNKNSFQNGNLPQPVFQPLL
Outline: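 Full-length yeast transcription factors or their DNA-binding domains, GST-tagged and expressed with PURExpress, were applied at about 100-200 nM to universal all-10-mer Agilent arrays. These arrays had been made double-stranded by primer extension on fresh or once-stripped slides. Detection used fluorescent anti-GST, normalisation used masliner, and E-scores for ungapped eight-base words pooled with reverse complements came from the Universal PBM Analysis Suite.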

Sequence	PBM E-score
CAATCACG	0.211
TGTAAGAA	-0.132
TAACTAGA	0.154
AATAATGG	0.0241
CGGTTATC	-0.0314
GGTAGATA	0.048
ATAAACAG	-0.0471
ACATACGC	0.122
AAATACTT	-0.0486
GGCGTAAC	-0.181
ATGATACA	0.289
AAGACTCA	0.317
AGTTGCAA	-0.2
ACGCACTC	-0.00777
AGTAGCAT	0.117
AAACTTGA	-0.113
ACTGCCGA	0.0718
CACACAAC	0.0519
GCTACAGC	0.102
GATTGGCC	-0.204
AAACAGTT	-0.128
GCCCCCCA	-0.244

Sequence	PBM E-score
ACTTTTCT	-0.174
ATGCTGCA	-0.025
AATAGCCC	-0.0969
ATTGGTTA	0.155
CGGAAATA	0.0181
AACTGCTT	-0.0678
ACGCCGCG	-0.0464
TACGCGGA	0.0236
CGAAATTC	-0.235
AAGTACCT	-0.121
ACGATCAC	-0.0532
ATGCTGGC	-0.0908
AGAATGTA	0.0323
CCCGAACA	0.0619
GGTTGCAA	-0.015
ACTGATCC	0.0497
AACCACCC	0.0993
GACTATAA	0.0359
CTGAAACC	0.0903
AAACAAAT	-0.00281
GCAAAACC	-0.0168
CAATTACG	-0.088

Sequence	PBM E-score
AATCACAG	0.27
CTACCGAC	-0.0219
GCCCAGCC	0.0771
AAAACGGT	-0.195
ATTTTGAC	0.155
CGTCCCGA	-0.214
CCCTAGAA	-0.255
CAGAACGG	-0.117
ACACGTAT	0.14
TCTACGAA	-0.257
TCTGCAGA	-0.114
ATTTTCCC	-0.154
CGACTAAG	0.118
GGCACACC	0.0319
GTATTTAA	-0.0956
GCCTCGAC	-0.0986
ACGTAAGG	-0.217
ACAACCTG	0.018
ATAGATAT	0.177
ATACACCA	0.114
AGTGGGAG	0.117
AGTGTCGC	0.138

Sequence	PBM E-score
ATTTGATA	0.215
AGCATACT	0.0151
AGATCTAG	-0.0772
CCATACTA	0.262
CTCGTACC	0.0824
AAGTAAAT	-0.171
CTGCTTTC	-0.0862
ATGGACAC	0.0706
ACTGAACA	0.179
GAGGATAA	0.0571
TACACATA	0.234
AGGTAGCG	-0.18
AGGGCTGA	0.00168
AGCAAGAG	-0.212
GCATATGC	-0.249
ACGCCGGC	0.132
CAGGATGC	0.00328
AAGCATGC	-0.179
AGCTGTGC	-0.0386
GAAAAGAA	-0.0931

Reference: the supplement of paper PMC3334620
